Measured values from publication PMC8460140.
These are yes or no findings as the source states them, for the method shown. For part of these data: Binding seen in cells or lysates may run through a third protein. Some binding calls cover weakened binding; strength is not graded here. For part of these data: Tags and fused reporters may be left off the sequences shown.

Amino acid sequences for entries named in this document (tags omitted). A change or cut given only in a name is not applied to a line headed by its entry. Residues count along the entry.
UniProt P47746: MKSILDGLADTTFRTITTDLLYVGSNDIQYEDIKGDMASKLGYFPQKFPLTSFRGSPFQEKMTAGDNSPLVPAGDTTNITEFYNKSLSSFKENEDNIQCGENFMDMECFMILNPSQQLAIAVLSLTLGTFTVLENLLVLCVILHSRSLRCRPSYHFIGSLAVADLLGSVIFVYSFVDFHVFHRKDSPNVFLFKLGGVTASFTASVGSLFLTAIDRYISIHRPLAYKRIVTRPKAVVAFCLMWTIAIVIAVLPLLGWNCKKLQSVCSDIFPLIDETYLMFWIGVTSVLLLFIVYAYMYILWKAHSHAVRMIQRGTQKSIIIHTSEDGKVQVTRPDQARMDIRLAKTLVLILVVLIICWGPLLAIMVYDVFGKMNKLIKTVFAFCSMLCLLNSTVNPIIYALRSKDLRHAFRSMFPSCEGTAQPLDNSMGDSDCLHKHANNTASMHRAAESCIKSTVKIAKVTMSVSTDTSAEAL
UniProt P11021: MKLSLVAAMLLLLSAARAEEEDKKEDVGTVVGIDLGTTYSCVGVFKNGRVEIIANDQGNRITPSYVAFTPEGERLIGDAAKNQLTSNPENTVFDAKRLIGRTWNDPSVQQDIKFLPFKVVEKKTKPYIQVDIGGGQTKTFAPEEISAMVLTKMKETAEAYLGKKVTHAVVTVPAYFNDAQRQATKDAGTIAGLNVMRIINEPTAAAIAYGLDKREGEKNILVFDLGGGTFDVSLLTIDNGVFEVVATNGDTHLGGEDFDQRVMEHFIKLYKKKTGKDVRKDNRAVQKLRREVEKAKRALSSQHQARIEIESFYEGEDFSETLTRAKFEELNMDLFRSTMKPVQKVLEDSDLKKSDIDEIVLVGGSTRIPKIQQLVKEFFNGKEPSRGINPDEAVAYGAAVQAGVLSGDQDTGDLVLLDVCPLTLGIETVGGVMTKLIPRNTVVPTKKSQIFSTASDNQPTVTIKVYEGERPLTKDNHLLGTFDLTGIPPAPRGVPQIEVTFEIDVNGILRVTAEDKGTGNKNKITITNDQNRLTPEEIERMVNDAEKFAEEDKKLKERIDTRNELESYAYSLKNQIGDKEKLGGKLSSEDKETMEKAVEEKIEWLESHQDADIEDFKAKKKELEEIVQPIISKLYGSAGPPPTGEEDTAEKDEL
UniProt P20029, residues 20-655: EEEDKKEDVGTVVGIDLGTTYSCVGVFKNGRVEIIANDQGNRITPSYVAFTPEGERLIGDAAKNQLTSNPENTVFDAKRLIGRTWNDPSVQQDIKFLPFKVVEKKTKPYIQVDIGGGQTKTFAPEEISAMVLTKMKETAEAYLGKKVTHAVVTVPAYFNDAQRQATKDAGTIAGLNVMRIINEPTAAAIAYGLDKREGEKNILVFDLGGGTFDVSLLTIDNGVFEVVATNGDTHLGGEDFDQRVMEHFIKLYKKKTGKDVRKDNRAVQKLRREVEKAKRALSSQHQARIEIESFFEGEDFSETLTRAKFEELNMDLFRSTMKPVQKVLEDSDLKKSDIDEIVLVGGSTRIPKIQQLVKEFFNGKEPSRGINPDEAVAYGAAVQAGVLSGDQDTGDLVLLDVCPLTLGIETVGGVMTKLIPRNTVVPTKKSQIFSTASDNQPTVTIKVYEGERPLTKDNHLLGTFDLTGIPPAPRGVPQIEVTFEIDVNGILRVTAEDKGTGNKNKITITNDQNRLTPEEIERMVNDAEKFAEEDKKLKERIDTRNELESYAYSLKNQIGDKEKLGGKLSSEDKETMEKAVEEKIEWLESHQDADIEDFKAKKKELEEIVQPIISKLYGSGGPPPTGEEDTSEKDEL

Assays:
[1] = molecular target: CB1R carboxyl-terminal domain (CB1R-CTD, amino acids 408-472), Y2H bait (UniProt P21554); experiment: two-hybrid; library screen: CB1R-CTD (amino acids 408-472) as bait, human cDNA library (>10^6 clones) as prey; MatchMaker system
CB1R-CTD-T460D = CB1R-CTD-T460D (UniProt P21554); experiment: two-hybrid; directed Y2H: GAL4 binding domain bait and GAL4 activation domain prey; growth on Leu/Trp/His-deficient plates with 12 mM 3-aminotriazole and X-Gal hydrolysis
CB1R-CTD-S464D = CB1R-CTD-S464D (UniProt P21554); experiment: as above
CB1R-CTD-T465D = CB1R-CTD-T465D (UniProt P21554); experiment: as above
CB1R-CTD-S429D = CB1R-CTD-S429D (UniProt P21554); experiment: as above
CB1R-CTD-T467D = CB1R-CTD-T467D (UniProt P21554); experiment: as above
CB1R-CTD-S425D = CB1R-CTD-S425D (UniProt P21554); experiment: as above
CB1R-CTD-S414D = CB1R-CTD-S414D (UniProt P21554); experiment: as above
CB1R-CTD-T453D = CB1R-CTD-T453D (UniProt P21554); experiment: as above
CB1R-CTD-S462D = CB1R-CTD-S462D (UniProt P21554); experiment: as above
CB1R-CTD-S441D = CB1R-CTD-S441D (UniProt P21554); experiment: as above
CB1R-CTD-S468D = CB1R-CTD-S468D (UniProt P21554); experiment: as above
[2] = molecular target: T1, CB1R-CTD fragment, residues 449-472, Y2H bait (UniProt P21554); experiment: as above
T1 sequence: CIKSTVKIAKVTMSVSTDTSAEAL

CB1R-CTD-S410D = CB1R-CTD-S410D (UniProt P21554); experiment: as above
CB1R-CTD-T418D = CB1R-CTD-T418D (UniProt P21554); experiment: as above
CB1R-CTD-S452D = CB1R-CTD-S452D (UniProt P21554); experiment: as above
CB1R-CTD-S448D = CB1R-CTD-S448D (UniProt P21554); experiment: as above
HA-CB1R = HA-CB1R (UniProt P21554); experiment: co-IP; HEK-293T cells, 48 h after transfection; lysis in GST buffer (1% NP-40, 100 mM NaCl, pH 7.4); IP with HA-agarose beads or FLAG M2 agarose beads
CB1R-Rluc [3] = molecular target: CB1R-Rluc (UniProt P21554); experiment: FRET or BRET; BRET in HEK-293T cells expressing CB1R-Rluc and GFP-BiP-IR, together or not with nontagged BiP, BiP-IR or BiP-ΔIR as competitors
[4] = molecular target: T2, GFP-CB1R-CTD fragment, amino acids 449-460 (UniProt P21554); experiment: co-IP; HEK-293T cells, 48 h after transfection; lysis in GST buffer (1% NP-40, 100 mM NaCl, pH 7.4); IP with anti-GFP antibody and Protein A/G; blot for FLAG
T2 sequence: CIKSTVKIAKVT

[5] = molecular target: CB1R, endogenous in mouse brain (mouse (endogenous in mouse brain)) (UniProt P47746); experiment: proximity ligation; Duolink in situ PLA on fixed synaptosomes from hippocampus, striatum and cortex of CB1R-WT and CB1R-KO mice; rabbit anti-CB1R and mouse anti-GRP78/BiP antibodies
[6] = molecular target: CB1R, endogenous in mouse brain (mouse (endogenous in mouse brain)) (UniProt P47746); experiment: proximity ligation; Duolink in situ PLA on 30-um fixed brain sections (hippocampus, striatum, cortex) of CB1R-floxed, CB1R-KO, GABA-CB1R-KO, Glu-CB1R-KO, Stop-CB1R, CB1R-RS, GABA-CB1R-RS and Glu-CB1R-RS mice; read-out: percent of cells with one or more dots
CB1R-Rluc [7] = molecular target: CB1R-Rluc (UniProt P21554); experiment: FRET or BRET; BRET saturation in HEK-293T cells: constant receptor-Rluc, increasing amounts of GFP-BiP-IR; 5 uM DeepBlueC
CB1R-S452D-Rluc = CB1R-S452D-Rluc (UniProt P21554); experiment: as above

Substance: BiP-interacting region (BiP-IR, BiP amino acids 497-654), Y2H prey (from UniProt P11021 497-654) (domain or fragment)
- binding [1]: binds
- binding (CB1R-CTD-T460D): binds
- binding (CB1R-CTD-S464D): binds
- binding (CB1R-CTD-T465D): binds
- binding (CB1R-CTD-S429D): binds
- binding (CB1R-CTD-T467D): binds
- binding (CB1R-CTD-S425D): binds
- binding (CB1R-CTD-S414D): binds
- binding (CB1R-CTD-T453D): binds
- binding (CB1R-CTD-S462D): binds
- binding (CB1R-CTD-S441D): binds
- binding (CB1R-CTD-S468D): binds
- binding [2]: binds
- binding (CB1R-CTD-S410D): binds
- binding (CB1R-CTD-T418D): binds
- binding (CB1R-CTD-S452D): no binding
- binding (CB1R-CTD-S448D): binds

Substance: 3xFLAG-BiP (from UniProt P11021 19-654)
- binding (HA-CB1R): binds

Substance: BiP-IR, nontagged (from UniProt P11021 497-654) (domain or fragment)
- binding (CB1R-Rluc [3]): binds

Substance: 3xFLAG-BiP-IR (from UniProt P11021 497-654) (domain or fragment)
- binding [4]: binds
- binding (HA-CB1R): binds

Substance: BiP, endogenous in mouse brain (from UniProt P20029 20-655)
- binding [5]: binds
- binding [6]: binds

Substance: GFP-BiP-IR (from UniProt P11021 497-654) (domain or fragment)
- binding (CB1R-Rluc [3]): binds
- binding (CB1R-Rluc [7]): binds
- binding (CB1R-S452D-Rluc): no binding

Substance: BiP, nontagged (from UniProt P11021 19-654)
- binding (CB1R-Rluc [3]): binds
